Source: the supplement of paper PMC3334620
In all, about 33,000 sequences were measured (“E-score (-0.5 to 0.5)”: median about -0.012, highest 2% from about 0.27 on). The list shows a part of the results.

Biological target: T1, Vhr1 (UniProt P40522)
T1 sequence: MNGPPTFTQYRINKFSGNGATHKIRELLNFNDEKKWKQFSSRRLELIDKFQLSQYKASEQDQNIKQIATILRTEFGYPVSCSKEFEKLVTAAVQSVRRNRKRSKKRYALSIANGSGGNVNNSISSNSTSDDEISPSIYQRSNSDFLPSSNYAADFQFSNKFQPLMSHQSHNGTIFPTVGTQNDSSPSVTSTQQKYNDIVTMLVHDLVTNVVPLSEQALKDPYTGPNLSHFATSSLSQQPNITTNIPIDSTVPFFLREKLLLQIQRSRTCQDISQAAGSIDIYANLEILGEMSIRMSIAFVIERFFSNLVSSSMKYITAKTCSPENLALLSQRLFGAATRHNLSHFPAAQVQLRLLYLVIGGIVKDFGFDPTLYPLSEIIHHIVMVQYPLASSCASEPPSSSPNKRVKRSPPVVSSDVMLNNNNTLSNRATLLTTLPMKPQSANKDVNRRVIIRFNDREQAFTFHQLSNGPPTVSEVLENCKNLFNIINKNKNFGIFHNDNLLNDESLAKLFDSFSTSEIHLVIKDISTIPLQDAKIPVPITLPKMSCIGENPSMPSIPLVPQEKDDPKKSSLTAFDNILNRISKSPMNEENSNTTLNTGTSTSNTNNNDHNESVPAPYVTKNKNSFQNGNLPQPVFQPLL
Experiment: PBM E-score (8-mer binding enrichment) (E-score (-0.5 to 0.5)); higher = stronger / more preferred TF binding; most listed sequences are background and not binding sites
Settings: protein concentration: 200 nM; construct: GST-full length
Method in brief: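 Yeast transcription factors carrying a GST tag, as full-length proteins or DNA-binding domains, were produced by PURExpress in vitro transcription/translation. About 100-200 nM protein was applied to universal all-10-mer Agilent arrays, double-stranded by primer extension on fresh or once-stripped slides. Bound protein was detected with fluorescent anti-GST, and scans were normalised with masliner. The Universal PBM Analysis Suite gave each ungapped eight-base word, pooled with its reverse complement, an E-score, a modified Wilcoxon-Mann-Whitney statistic.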

Sequence	PBM E-score
ATCCACTA	0.0617
AAGTAGTC	0.231
CAAGGCCG	-0.0522
TCAGAGGA	-0.128
CGCTGCAG	-0.139
AGCCACTC	0.0923
GGCATAGA	0.21
GATGTTAC	-0.0887
CGAAAAAA	-0.137
ATCCCAGC	0.0484
CTTACCTC	-0.218
ACGCTGCG	-0.128
GCAGACTA	0.00135
CATGTTCG	0.0242
GGGATGGA	-0.0135
TAACGTGA	-0.0922
CCGAAAGC	-0.273
CGTCCCTC	-0.112
CCGTTTCC	-0.0553
AAGTGGCT	0.111
CACACTGC	0.135
CAGTTCCA	0.0226

Sequence	PBM E-score
AGTCCTAT	0.135
CCTCAACA	0.0243
CGCTCAAG	-0.257
TCCCAACA	-0.0496
CGAAGCAA	-0.158
ACCCAGTC	0.204
AAGGTGAA	0.0584
AGTCAAGA	0.0425
ATTTGCTA	-0.0496
AAAATTTT	-0.351
AACCGTAG	-0.271
GTAGAAAC	-0.108
CGAACCAA	-0.0249
AAAGTTCG	-0.228
GGACTTAA	-0.181
AAAATCAC	0.154
CCCGCGAG	0.105
GCTCTACA	-0.0682
AGTACTAC	0.178
AGAGAAGC	0.0302
GGCTGGCA	-0.288
AAAATCAG	-0.0451

Sequence	PBM E-score
CAAGGTAA	0.0747
ATGGATTG	0.214
CTCTTATC	0.192
CTTATCAA	0.0621
GATTTTAA	-0.132
ACAACAGG	-0.0114
CTAAAAAA	-0.164
ATGAGTGC	0.0758
ATGCAAAT	-0.00247
AACCATCA	0.143
ATTCATAC	0.248
ATCAAGGA	0.0195
ACCGACCA	0.156
AAAGATCA	-0.0595
ACACCTAC	0.127
ATGTAAAA	-0.211
CCTTTCCC	-0.169
ACCGTCTC	0.0856
CCGTTGAC	0.0819
ATATTCAT	0.128
CATACCGG	0.108
CTGGTGTA	0.0814

Sequence	PBM E-score
CCATCTCG	0.104
ACGATTGG	-0.0471
AGCGGTTA	-0.0644
AGGGAGCG	0.0524
ATGCCTTC	-0.239
ATATCCCA	0.145
CAGTTGTA	0.0308
CGTCAATC	0.0648
AGAAGTAG	-0.116
ATTTTGGC	0.0388
ACTTTAAC	-0.178
ACTGGTTA	0.0929
ACAGGCCA	-0.0341
AGGTTGGA	0.0473
CTTTCCTA	-0.0946
ATCGTGTG	0.131
CTGTTGAA	0.0933
TACCCCGA	0.116
GTACAAAA	-0.0126
ACTCAAGG	0.245
